Measured values published in paper PMC10507807, “De novo design of a stapled peptide targeting SARS-CoV-2 spike protein receptor-binding domain” (RSC Medicinal Chemistry, 2023).
Starred links: 1 amine or outer side, 2 acyl side, 3 side chain; linkers in the order of their positions; H or OH if unused. Positions of bridges follow the written chain, without caps; N, C: chain ends. Non-standard residues stand in square brackets, D forms with d. Residues, ends and D or L forms follow the SMILES beside them. X1 = C[C@@](CC=[*:3])(N[*:1])C(=O)[*:2]

Target: biotinylated recombinant SARS-CoV-2 spike protein RBD (Severe acute respiratory syndrome coronavirus 2, UniProt P0DTC2)
Assay: Bio-layer interferometry, spike protein RBD
Type: binding
Settings: BLI, FortéBio BLItz; RBD on SAX biosensor; pep39 120, 48, 24, 4.8, 0.48 μM; PBS; association 120 s, dissociation 120 s; global fit 1:1, BLItz Pro 1.1; read-out: KD (dissociation constant)

SMILES: CSCC[C@@H]1NC(=O)[C@H](CC(N)=O)NC(=O)[C@@H]2CC(=O)NCCCC[C@H](NC(=O)[C@H](Cc3c[nH]c4ccccc34)NC(=O)[C@@H](NC(=O)[C@H](CCCCN)NC(=O)[C@H](Cc3ccc(O)cc3)NC(=O)[C@H](CC(C)C)NC(=O)[C@H](Cc3c[nH]c4ccccc34)NC(=O)[C@H](CCC(=O)O)NC(=O)[C@@H](NC(=O)CNC(C)=O)[C@@H](C)O)C(C)C)C(=O)N[C@@H](C)C(=O)N[C@@H](Cc3ccccc3)C(=O)N[C@@](C)(C/C=C/C[C@@](C)(C(=O)O)NC1=O)C(=O)N2 [pep39] (Ac-GTEWLYKVWKAF[X1]DNM[X1]-OH; lactam 10-14; staple (E) 13-17)
- Kd: 570 ± 50 nM
